The values that follow come from paper PMC12136788.

B1: chr14:89307221:89307222:+_ENSG00000165533_ENST00000346301|hu_mus|hu_hu_hu_mus_False|28_68 (ssRNA)
RNA: GGGAGUUCUACAGUCCGACGAUCUCCUGUUUGGUUAGUGCCAGGGAGCUUCAAAGAUGUGCCAGGGCGUGGAACUUGAGCAAUAGCAUUUUCAUCCAGGAUCAUUUCUGCAAUUCCUUCCUGGUCCACAUCAAUUUCAUCUAUCAACAGAGGAUUGAGCAUCA
B2: chr11:97546686:97546687:+_ENSMUSG00000038437_ENSMUST00000044730|mus_mus|FALSE|FALSE (ssRNA)
RNA: GGGAGUUCUACAGUCCGACGAUCUACGAACUGCCCUUCGUACAAAUAACAUCCGUUAUACAAAGAUACAAGACCCAGGCUAUGCACAAUUCCAGGCUUGGAGGUCGCAGGGGAACACCGUCUCUUGGGCUGAGGAUAUAAAGGCAACAGAGGAUUGAGCAUCA
B3: 142212072_142215241_6041_CDS_ENSG00000175054_ENST00000350721|human|control|control (ssRNA)
RNA: GGGAGUUCUACAGUCCGACGAUCACCCUCAGGUGGGGUUUCAUUUUCAGGAAAACAUAAUUCAACACCUUUUUGAAGAACAAUUAGUGCCUGGUGAACAUCACCCUUGGACCAGAGCCACUUUGCCCUUUCCACGUACAGUUCCAACAGAGGAUUGAGCAUCA
B4: chr4:76703833:76703834:+_ENSG00000138768_ENST00000264904|hu_hu|FALSE|FALSE (ssRNA)
RNA: GGGAGUUCUACAGUCCGACGAUCUUGGAGUUGUUGUUUUUUAAUAAGUUUUGGAGCAAAAUCAAACAAUCUUCAACUACUAUACCUCCAUCACUGUUCCCCUCCUCUGAAAUAAUGUCCAGUAGUCUCUCGAAAGCAUUUUCACAACAGAGGAUUGAGCAUCA
B5: 22898550_23003135_409_CDS_ENSG00000150867_ENST00000376573|human|control|control (ssRNA)
RNA: GGGAGUUCUACAGUCCGACGAUCGUUAAAAAGGUGAUUGUCCACCUUUAUUUUUGAAUAGGCUUUGAAGUCAUCUGGCAUCAACAUAACAGGGAUUUGAACAUGGCUCAGUUCAUUGAUCGAGUGGUUUACCCCCCACAUGAGCAACAGAGGAUUGAGCAUCA
B6: chr8:67243003:67243004:-_ENSMUSG00000031605_ENSMUST00000034017|mus_hu|motif|central (ssRNA)
RNA: GGGAGUUCUACAGUCCGACGAUCGUCACUUGAGAUUAAGCUGCACACUUGUUCGAUGCCAAGAUUGAGAAAUUCUUCACGGAGUACAACAUCUGCAAAAUGUUGCUCUGCAUAGGUGUUGGCCUUGUUCAGAAGGUCGGUACACAACAGAGGAUUGAGCAUCA
B7: chr4:76721835:76721836:+_ENSG00000138768_ENST00000264904|hu_mus|hu_hu_hu_mus_True|58_98 (ssRNA)
RNA: GGGAGUUCUACAGUCCGACGAUCGUUUGGCUGGGGUUCUGAGAUGCCUCUGGAAUAUAACUCAUGUUUGCUAAUAAUCCUAGUUUCCUCUAUGAAAUUCUCUUUGCCAAUCCUCUUCUCUAUUAGUUGCUUUAGUUUCUCUUUCAACAGAGGAUUGAGCAUCA
B8: 15603822_15605163_2305_CDS_ENSMUSG00000021733_ENSMUST00000057015|mouse|control|control (ssRNA)
RNA: GGGAGUUCUACAGUCCGACGAUCCAGAAAGAACGUCGUGAAAAACAAGACGACACACCAGAAGAGCACGUCAGGAACAUAAGGUCCAUGAGGCCCACAAGCUGAUCCCACAAACAUACCAUGGAAGGUCUUACACUCAGAAACCAACAGAGGAUUGAGCAUCA
B9: chr5:93611588:93611589:-_ENSMUSG00000063015_ENSMUST00000058550|mus_mus|FALSE|FALSE (ssRNA)
RNA: GGGAGUUCUACAGUCCGACGAUCUUACUUACUGAAUUACUUUAAAAGAAAAGGUGGGUGGUACUCAAGUGAAGUCAGAAUACAUAGAUCAACAAGCACACAGCUUAGUUAAGUAUUCAACCGAGGCAAGAAAAGGCAAGAGGACAACAGAGGAUUGAGCAUCA
B10: chr1:35650007:35650008:-_ENSG00000116560_ENST00000357214|hu_mus|motif|central (ssRNA)
RNA: GGGAGUUCUACAGUCCGACGAUCCUAACAUCCAUAAAAAGGUAGCUUGCUUACUAAAAUGCCAAGAAUUUAAGUGGUAUCGGAACAAGAAAAGACAAAACCAAACUAGAAUGAAAGCCUAAAUAUCUAAAAUCGGGGUUUUUUCAACAGAGGAUUGAGCAUCA
B11: chr6:89808334:89808335:-_ENSG00000154548_ENST00000452027|hu_hu|FALSE|FALSE (ssRNA)
RNA: GGGAGUUCUACAGUCCGACGAUCUGCUCUUUCUGUUGCUGUUCACCAACUGUUUUUAUGACGAUAACUUCGAGAUCUGGAAUGUGACCGAAAAUGAGAAUGCUUUGCUGUUUGUACUUUAGUUUCAGAAUUGGUAUACCCUUUCAACAGAGGAUUGAGCAUCA
B12: 56000820_56002925_2484_CDS_ENSMUSG00000022601_ENSMUST00000050248|mouse|control|control (ssRNA)
RNA: GGGAGUUCUACAGUCCGACGAUCGCCUCGAACUUCAGGCUUUGGCUGGUGUUUCUUAAGGUGCUUGCUAAGUCCAGAGCCCCUAUGAAAAGACUUUCCACAAAUUGAGCAGAAGUACUUGGACUCUCCUGUGUGAAUACUCAUCAACAGAGGAUUGAGCAUCA
B13: 31017548_31017668_2691_3pUTR_ENSMUSG00000027660_ENSMUST00000118470|mouse|control|control (ssRNA)
RNA: GGGAGUUCUACAGUCCGACGAUCCACUUUUGCUGCCAUACAAAUGAACAGAAUGCCUAGCUACCUUCAUGCAAAUAAGAUGUUAGAAUUCAAUUUUCAAAGCAAGCGACAAACACAAAGCCCUGUCAACCACACACAGGUGUGCAACAGAGGAUUGAGCAUCA
B14: chrX:65951094:65951095:+_ENSMUSG00000000838_ENSMUST00000114657|mus_mus|FALSE|FALSE (ssRNA)
RNA: GGGAGUUCUACAGUCCGACGAUCCUGCCUUGAACUCUCCAGUUGUUUACUGGCUUCUUCAUUUCUCAGUAUAAGAGACAACUUGGUGCGCAGACUUCGAAAGUGCAUGUCAAUCAACAUGUGGGCUCGCUUUGAGGUGACUUCCAACAGAGGAUUGAGCAUCA

The list shows a part of the results.

The assay concerns the target T1, UNK ZnF1-3 (human, UniProt Q9C0B0 31-174).
T1 sequence: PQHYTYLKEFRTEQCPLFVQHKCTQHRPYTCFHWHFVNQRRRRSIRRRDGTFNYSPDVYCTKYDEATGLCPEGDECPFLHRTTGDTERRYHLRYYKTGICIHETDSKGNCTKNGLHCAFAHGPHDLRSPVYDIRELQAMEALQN
The experiment in a line: nsRBNS (natural sequence RNA bind-n-seq); RBNS binding buffer (assumed for nsRBNS): 25 mM Tris pH 7.5, 150 mM KCl, 3 mM MgCl2, 0.01% Triton X-100, 500 ug/ml BSA, 20 U/ml SUPERase-In, 4 C; UNK is unkempt and MSI1 is Musashi-1; names of the RNAs are library labels; protein concentration not given here; high values mean tight binding.
The molecule B1 came in with a binding signal of 0.907 enrichment R.
B2: the binding signal came out at 1.32 enrichment R.
B3 showed a binding signal of 1.09 enrichment R.
In turn, B4 registered a binding signal of 1.18 enrichment R.
As to B5, the binding signal was determined as 0.845 enrichment R.
The molecule B6 came in with a binding signal of 0.789 enrichment R.
As for B7, the binding signal was 0.406 enrichment R.
The result for B8 reads 1.2 enrichment R.
The molecule B9 yielded a binding signal of 1.58 enrichment R.
Take B10: the binding signal amounted to 1.41 enrichment R.
The result for B11 reads 0.89 enrichment R.
The result for B12 reads 0.862 enrichment R.
The molecule B13 came in with a binding signal of 1.21 enrichment R.
In the case of B14, the binding signal amounted to 0.828 enrichment R.
